Assay results from paper PMC4336329 (PLoS ONE, 2015).
Among all 310,000 compounds or so, about 14,000 (4.5%) showed an effect of 50% or more. Effects have a minus sign here. This is one part of the list.

These compounds were tested against human ether-à-go-go-related gene (hERG) potassium channel (human, UniProt Q12809) (assay: primary screen, population patch clamp on CHO cells stably expressing hERG).
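Note: peak tail current of the secondary pulse compared with the same well before compound.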

human ether-à-go-go-related gene (hERG) potassium channel, sequence (Q12809 whole entry, looked up): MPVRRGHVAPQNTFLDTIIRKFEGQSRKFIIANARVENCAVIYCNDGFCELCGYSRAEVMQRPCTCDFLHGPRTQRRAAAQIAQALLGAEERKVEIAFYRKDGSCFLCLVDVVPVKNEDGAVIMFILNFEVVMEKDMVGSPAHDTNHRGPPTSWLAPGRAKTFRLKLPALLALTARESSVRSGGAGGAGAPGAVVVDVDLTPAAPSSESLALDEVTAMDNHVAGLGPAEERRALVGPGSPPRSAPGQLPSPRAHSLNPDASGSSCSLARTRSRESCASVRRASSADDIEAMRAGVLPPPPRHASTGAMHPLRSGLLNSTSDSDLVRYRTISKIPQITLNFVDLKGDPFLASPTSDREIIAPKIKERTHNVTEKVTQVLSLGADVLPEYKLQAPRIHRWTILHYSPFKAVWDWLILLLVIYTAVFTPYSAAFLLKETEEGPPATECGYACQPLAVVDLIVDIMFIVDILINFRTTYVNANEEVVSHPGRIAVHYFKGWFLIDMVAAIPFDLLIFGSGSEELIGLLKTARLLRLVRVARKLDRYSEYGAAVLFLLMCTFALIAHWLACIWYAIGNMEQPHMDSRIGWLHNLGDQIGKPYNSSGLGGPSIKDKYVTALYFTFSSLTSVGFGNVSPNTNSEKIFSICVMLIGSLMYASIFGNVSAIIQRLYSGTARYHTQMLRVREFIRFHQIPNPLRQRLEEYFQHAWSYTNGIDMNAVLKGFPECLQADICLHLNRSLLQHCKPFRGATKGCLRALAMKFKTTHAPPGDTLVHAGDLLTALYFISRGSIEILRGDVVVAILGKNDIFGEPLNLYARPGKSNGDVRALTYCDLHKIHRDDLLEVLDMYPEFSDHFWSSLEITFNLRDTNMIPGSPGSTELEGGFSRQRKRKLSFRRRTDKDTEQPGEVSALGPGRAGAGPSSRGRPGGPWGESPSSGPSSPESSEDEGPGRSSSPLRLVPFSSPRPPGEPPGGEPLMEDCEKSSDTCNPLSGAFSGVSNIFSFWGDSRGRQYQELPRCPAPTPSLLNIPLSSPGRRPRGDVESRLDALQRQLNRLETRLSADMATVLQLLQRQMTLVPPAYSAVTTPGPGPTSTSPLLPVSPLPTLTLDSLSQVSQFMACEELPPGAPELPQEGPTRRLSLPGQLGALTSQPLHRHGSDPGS

How did the “hERG current change (%, negative = inhibition) at 10uM” value turn out when `COc1ccc(N2CCN(CCCNC(=O)C3CCCN(S(=O)(=O)c4cnc[nH]4)C3)CC2)cc1` (centres unmarked) was run?
The value was 1.63%.

How did the “hERG current change (%, negative = inhibition) at 10uM” value turn out when `CCNc1c(N)c(=O)oc2ccccc12` was run?
Its value is 5.57%.

For `CC(c1nnc(SCC(=O)c2c(N)n(C3CC3)c(=O)[nH]c2=O)n1-c1ccc(F)cc1)N(C)C` (centres unmarked), which “hERG current change (%, negative = inhibition) at 10uM” value is on record?
The value was 13.2%.

How did the “hERG current change (%, negative = inhibition) at 10uM” value turn out when `COCc1ccc(C(=O)N(C)CC2CCCN(CCc3ccc(OC)cc3)C2)o1` (centres unmarked) was run?
Its value is -69.5%.

`COc1ccc2c(c1)c(C(=O)CN1CCC(C(N)=O)CC1)c(C)n2C` was tested. Which “hERG current change (%, negative = inhibition) at 10uM” value did it give?
Its value is 10.5%.

Which “hERG current change (%, negative = inhibition) at 10uM” value does the source give for `CCN(CC)S(=O)(=O)c1cc(NS(=O)(=O)c2cc(Cl)ccc2Cl)ccc1C` here?
Its value is -9.73%.

How did the “hERG current change (%, negative = inhibition) at 10uM” value turn out when `CCCNC(C)C(=O)Nc1ccccc1C.Cl` (centres unmarked) was run?
The value was 15.8%.

`O=C(COc1ccccc1Cl)NCCc1ccc2c(c1)OCCO2` was tested. Which “hERG current change (%, negative = inhibition) at 10uM” value did it give?
Its value is -6.04%.

With `COc1ccc(C(CNC(=O)c2ccccc2C)N2CCCC2)cc1` (centres unmarked) as the compound, how does the “hERG current change (%, negative = inhibition) at 10uM” value read?
The value was -16.2%.

With `CCCN1C(=O)S/C(=C/c2ccc(N3CCOCC3)o2)C1=O` as the compound, how does the “hERG current change (%, negative = inhibition) at 10uM” value read?
The value was 4.9%.

Which “hERG current change (%, negative = inhibition) at 10uM” value does the source give for `Cc1ccc([N+](=O)[O-])cc1S(=O)(=O)NCC1COc2ccccc2O1` (centres unmarked) here?
The value was -10.6%.

Which “hERG current change (%, negative = inhibition) at 10uM” value does the source give for `COc1ccccc1CNC(=O)c1cc(C(C)C)nc2ccccc12` here?
The value was -5.47%.

For `Cc1ccc(Oc2cc(-n3nc(C)cc3C)ncn2)cc1`, which “hERG current change (%, negative = inhibition) at 10uM” value is on record?
The value was -18.8%.

How did the “hERG current change (%, negative = inhibition) at 10uM” value turn out when `CN(C(=O)c1ccc(NC(=O)Cc2cccc(NC(=O)C3CCCN(C(=O)C4CCCCC4)C3)c2)cc1)C1CCCC1` (centres unmarked) was run?
The value was 7.55%.

How did the “hERG current change (%, negative = inhibition) at 10uM” value turn out when `Nn1c(=O)[nH]c2ccccc2c1=O` was run?
Its value is 18.1%.

With `COc1ccc(NC(=O)C(NC(=O)OC(C)(C)C)C(C)OCc2ccccc2)cc1` (centres unmarked) as the compound, how does the “hERG current change (%, negative = inhibition) at 10uM” value read?
The value was 3.91%.

Which “hERG current change (%, negative = inhibition) at 10uM” value does the source give for `O=C(COC(=O)CCCSc1nc2ccccc2[nH]1)NC(=O)NC1CCCC1` here?
Its value is -2.19%.

Which “hERG current change (%, negative = inhibition) at 10uM” value does the source give for `Cc1ccccc1CN(c1ccc(C(=O)Nc2ccccc2C(=O)N2CCCC2)cc1)S(C)(=O)=O` here?
The value was -19.8%.

How did the “hERG current change (%, negative = inhibition) at 10uM” value turn out when `CN(Cc1nc2ccccc2[nH]1)C(=O)C1CCC(=O)N(C2CCCC2)C1` (centres unmarked) was run?
Its value is 1.99%.

`CC1(C)CC(=O)C2=C(C1)OC(N)=C(C#N)C2CCc1ccccc1` (centres unmarked) was tested. Which “hERG current change (%, negative = inhibition) at 10uM” value did it give?
Its value is 1.07%.

For `COc1ccccc1OC(C)C(=O)Nc1ccccc1C(=O)NCc1cccnc1` (centres unmarked), which “hERG current change (%, negative = inhibition) at 10uM” value is on record?
The value was -4.35%.

With `N#Cc1ccc(N2CCN(c3ccc(F)cc3)CC2)cc1` as the compound, how does the “hERG current change (%, negative = inhibition) at 10uM” value read?
Its value is -16.9%.

How did the “hERG current change (%, negative = inhibition) at 10uM” value turn out when `O=C(Nc1ccccc1F)N(Cc1ccc(F)cc1)Cc1nc2ccccc2c(=O)[nH]1` was run?
Its value is 23.3%.

How did the “hERG current change (%, negative = inhibition) at 10uM” value turn out when `CS(=O)(=O)N(Cc1ccc(C(=O)NN=C2CCCCCC2)cc1)c1ccccc1` was run?
The value was -7.08%.

With `CC(=O)C1=C(O)C(=O)N(c2nccs2)C1c1ccc(F)cc1` (centres unmarked) as the compound, how does the “hERG current change (%, negative = inhibition) at 10uM” value read?
Its value is -1.19%.

`COc1ccc2nc(C)cc(N3CCN(c4ccccc4)CC3)c2c1` was tested. Which “hERG current change (%, negative = inhibition) at 10uM” value did it give?
The value was -66.7%.

For `Cc1nc2cc(NC(=O)Nc3cccc4ccccc34)ccc2n1C`, which “hERG current change (%, negative = inhibition) at 10uM” value is on record?
Its value is 2.53%.

For `CCCc1cc(=O)[nH]c(SCC(=O)Nc2ccc(OCc3ccccc3)cc2)n1`, which “hERG current change (%, negative = inhibition) at 10uM” value is on record?
Its value is 1.5%.

How did the “hERG current change (%, negative = inhibition) at 10uM” value turn out when `CNC(=O)c1ccc(CN(C)CC(=O)Nc2ccccc2C(=O)NC2CC2)cc1` was run?
The value was -12.2%.

`N#Cc1ccc(C(=O)Nc2cccc3ncccc23)c(F)c1` was tested. Which “hERG current change (%, negative = inhibition) at 10uM” value did it give?
The value was -40.2%.

With `O=C(CSCc1ccc(F)cc1)NCc1cccs1` as the compound, how does the “hERG current change (%, negative = inhibition) at 10uM” value read?
The value was -5.98%.

With `CCOC(=O)Cn1c2ccccc2c2nc3ccccc3nc21` as the compound, how does the “hERG current change (%, negative = inhibition) at 10uM” value read?
The value was 6.84%.

`C=C(C)CN(CC)c1ccc(N2C(=O)CCCC2=O)cc1[N+](=O)[O-]` was tested. Which “hERG current change (%, negative = inhibition) at 10uM” value did it give?
Its value is 16.7%.

`Cc1cc(-c2ccc(NC(=O)[C@@H]3CCCC[C@@H]3C(=O)O)c(C)c2)ccc1NC(=O)[C@@H]1CCCC[C@@H]1C(=O)O` was tested. Which “hERG current change (%, negative = inhibition) at 10uM” value did it give?
Its value is 16.2%.

For `O=C(Nc1ccc(N2CCOCC2)cc1)c1cc(-c2ccncc2)nc2ccccc12`, which “hERG current change (%, negative = inhibition) at 10uM” value is on record?
The value was -44.2%.

With `CCC(=O)N1CCc2cc(Br)cc(S(=O)(=O)NCc3ccccc3OC)c21` as the compound, how does the “hERG current change (%, negative = inhibition) at 10uM” value read?
Its value is 16.9%.

For `O=C(O)CCCCCCCCCCCc1ccccc1`, which “hERG current change (%, negative = inhibition) at 10uM” value is on record?
Its value is 12.7%.

`Cn1c(N)c(S(=O)(=O)NCc2ccc(F)cc2)c(=O)n(C)c1=O` was tested. Which “hERG current change (%, negative = inhibition) at 10uM” value did it give?
The value was 9.15%.

With `CSc1nsc(SCC(=O)Nc2nncs2)n1` as the compound, how does the “hERG current change (%, negative = inhibition) at 10uM” value read?
The value was 21.2%.

How did the “hERG current change (%, negative = inhibition) at 10uM” value turn out when `Cc1occc1C(=O)N1N=C(C2CC2)CC1(O)C(F)(F)F` (centres unmarked) was run?
The value was 10%.

With `COCCn1c(SCC(=O)N2CCN(c3ccccc3)CC2)nc2c(c1=O)SC(C)C2` (centres unmarked) as the compound, how does the “hERG current change (%, negative = inhibition) at 10uM” value read?
Its value is -58.8%.

`CCCn1c(N2CCN(C(=O)Nc3ccccc3)CC2)nc2ccccc21` was tested. Which “hERG current change (%, negative = inhibition) at 10uM” value did it give?
Its value is -35.9%.

How did the “hERG current change (%, negative = inhibition) at 10uM” value turn out when `NC(=O)COC(=O)c1ccccc1SCC(=O)NC1CCCCCCC1` was run?
Its value is 12%.

For `O=C(NCc1ccco1)c1cccc(S(=O)(=O)N2CCCCC2)c1`, which “hERG current change (%, negative = inhibition) at 10uM” value is on record?
The value was -24.7%.

For `COc1ccccc1CCC(=O)Nc1ncc(C)s1`, which “hERG current change (%, negative = inhibition) at 10uM” value is on record?
The value was 16.3%.

For `CCn1c(=O)c(C)nn2c3ccccc3nc12`, which “hERG current change (%, negative = inhibition) at 10uM” value is on record?
Its value is -1.87%.

Which “hERG current change (%, negative = inhibition) at 10uM” value does the source give for `O=C(O)CSCCn1cccn1` here?
The value was -29.9%.

`CCn1c(=S)sc2c(=O)[nH]c(SCC(=O)Nc3cc(OC)ccc3OC)nc21` was tested. Which “hERG current change (%, negative = inhibition) at 10uM” value did it give?
Its value is 13.9%.

How did the “hERG current change (%, negative = inhibition) at 10uM” value turn out when `O=C(O)COc1ccc(/C=N/NC(=O)Cc2ccc(Cl)cc2)cc1` was run?
Its value is 1.77%.

How did the “hERG current change (%, negative = inhibition) at 10uM” value turn out when `O=[N+]([O-])c1ccc(NC(=S)NCc2ccc(F)cc2)cc1` was run?
Its value is -12.3%.

How did the “hERG current change (%, negative = inhibition) at 10uM” value turn out when `O=C1Nc2ccccc2C12NCCc1c2[nH]c2ccccc12` (centres unmarked) was run?
The value was 4.01%.

With `COc1ccc(S(=O)(=O)N2CCN(C(c3ccccc3)c3ccccc3)CC2)cc1NC(C)=O` as the compound, how does the “hERG current change (%, negative = inhibition) at 10uM” value read?
The value was 21.2%.

`CCOC(=O)C1CCN(c2ncnc3c2oc2ccccc23)CC1` was tested. Which “hERG current change (%, negative = inhibition) at 10uM” value did it give?
Its value is -34.9%.

`COC(=O)c1sc2ccccc2c1-n1cccc1C(=O)C(=O)Nc1ccc(C)cc1` was tested. Which “hERG current change (%, negative = inhibition) at 10uM” value did it give?
Its value is -2.91%.

For `O=C(O)CSc1c2c(nc3cc(C(=O)Nc4cccc(C(F)(F)F)c4)ccc13)CCC2`, which “hERG current change (%, negative = inhibition) at 10uM” value is on record?
The value was 14.3%.

`COc1ccc(C(=O)Nc2ccc(NC(=O)c3ccccc3OC)nc2)cc1` was tested. Which “hERG current change (%, negative = inhibition) at 10uM” value did it give?
The value was 5.56%.
